US20060239988A1 (published 2006)

Target: T1, recombinant Syrian hamster vimentin (Cytoskeleton Inc.) (Syrian hamster, UniProt P02544 2-465, limits assumed)
T1 construct: also called pure vimentin; purified hamster vimentin
Test: GST pull-down in vitro with purified hamster vimentin (0.1 microgram), negative control, Western blot

T1 sequence (P02544 2-465 limits assumed): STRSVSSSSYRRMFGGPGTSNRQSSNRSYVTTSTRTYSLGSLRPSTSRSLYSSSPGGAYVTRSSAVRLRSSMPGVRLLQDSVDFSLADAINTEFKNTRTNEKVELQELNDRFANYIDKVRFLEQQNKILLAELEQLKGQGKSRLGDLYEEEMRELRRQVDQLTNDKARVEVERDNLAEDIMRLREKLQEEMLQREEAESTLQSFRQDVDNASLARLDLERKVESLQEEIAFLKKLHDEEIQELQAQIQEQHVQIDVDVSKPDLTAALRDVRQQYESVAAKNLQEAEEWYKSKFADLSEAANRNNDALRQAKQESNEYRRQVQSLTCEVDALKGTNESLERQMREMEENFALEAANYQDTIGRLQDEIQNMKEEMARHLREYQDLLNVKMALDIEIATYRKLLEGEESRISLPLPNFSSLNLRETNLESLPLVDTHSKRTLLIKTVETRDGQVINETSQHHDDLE

binding result: no binding
B1: GST alone (other)
chain: not shown
notes: Negative control of the GST pull-downs
